About 230 (0.21%) of roughly 110,000 compounds showed an effect of 50% or more. The list shows a part of the results.
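Also: 30 min substrate incubation versus DMSO and 10 µM JCP410 controls.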

For this test, the target named is DPAP1 (Plasmodium falciparum, UniProt Q8IIJ9). Put plainly: primary screen, percent inhibition; read by cleavage of a fluorogenic dipeptide substrate; higher = more effect of the substance. Also on record: species or system P. falciparum D10 trophozoite lysates; single well.
Sequence of DPAP1 (Q8IIJ9 whole entry, looked up): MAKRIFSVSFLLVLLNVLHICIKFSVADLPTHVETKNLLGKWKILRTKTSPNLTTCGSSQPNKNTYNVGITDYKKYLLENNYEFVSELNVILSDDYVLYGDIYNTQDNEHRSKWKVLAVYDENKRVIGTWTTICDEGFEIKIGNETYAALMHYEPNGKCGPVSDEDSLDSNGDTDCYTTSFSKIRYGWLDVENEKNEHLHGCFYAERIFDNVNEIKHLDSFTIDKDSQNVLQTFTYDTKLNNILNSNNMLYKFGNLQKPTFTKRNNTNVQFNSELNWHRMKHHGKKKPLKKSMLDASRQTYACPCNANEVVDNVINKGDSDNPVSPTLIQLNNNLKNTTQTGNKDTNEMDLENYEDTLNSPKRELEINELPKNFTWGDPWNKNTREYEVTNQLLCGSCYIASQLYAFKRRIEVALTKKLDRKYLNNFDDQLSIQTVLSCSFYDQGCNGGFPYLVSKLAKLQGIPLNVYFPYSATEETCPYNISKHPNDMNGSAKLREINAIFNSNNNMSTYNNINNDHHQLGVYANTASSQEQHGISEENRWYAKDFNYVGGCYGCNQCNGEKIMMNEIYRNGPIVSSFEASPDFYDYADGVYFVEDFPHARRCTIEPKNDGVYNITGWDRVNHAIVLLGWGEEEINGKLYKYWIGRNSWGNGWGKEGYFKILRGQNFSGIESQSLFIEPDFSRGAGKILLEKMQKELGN
Consider `Cc1ccc(C(c2c(O)nc(O)nc2O)N2CCCC2)cc1` (stereo not drawn), for which the “% Inhibition @ 10 uM” value is listed as 6.13%.

Turning to `CCCCc1ccc(C(=O)NC(Cc2ccccc2)C(=O)O)cc1` (stereo not drawn), the “% Inhibition @ 10 uM” value is listed as -0.941%.

In the case of `Cc1ccc(OCCn2c(SCCO)nc3c(N)ncnc32)cc1`, the “% Inhibition @ 10 uM” value is -7.58%.

Consider `CCOc1ccc(N(CC(=O)NCc2ccccc2Cl)S(C)(=O)=O)cc1`, for which the “% Inhibition @ 10 uM” value is on record as -3.29%.

On to `Clc1ccccc1Cn1nnc(-c2cccs2)n1`, for which the “% Inhibition @ 10 uM” value is listed as -3.34%.

`Cc1ccccc1Cn1c(C)c(CNCCc2ccccc2Cl)c(C(=O)O)c1C`: the “% Inhibition @ 10 uM” value was found to be 11.5%.

Turning to `CC(=O)N(CN1C(=O)C2CCCCC2C1=O)c1ccccc1` (stereo not drawn), the “% Inhibition @ 10 uM” value stood at 1.03%.

In the case of `Cc1nnc(N2CCN(C(=O)NCc3ccco3)CC2)c2nn(-c3ccccc3)c(C)c12`, the “% Inhibition @ 10 uM” value turned out to be 1.11%.

With `CC(=O)c1c(C)n(-c2ccccc2C)c2ccc(O)cc12`, the “% Inhibition @ 10 uM” value is 5.16%.

Regarding `N#Cc1ccccc1Cn1c(=O)n(CC(=O)NCc2ccccc2Cl)c(=O)c2sccc21`, the “% Inhibition @ 10 uM” value was -7.85%.

In the case of `COc1ccc(CNS(=O)(=O)c2cc(Br)cnc2N)cc1`, the “% Inhibition @ 10 uM” value is listed as -2.84%.

Regarding `CC(C)(C)C1CCc2c(sc(NC(=O)c3ccc(Br)o3)c2C#N)C1` (stereo not drawn), the “% Inhibition @ 10 uM” value was -6.7%.

As for `Cn1c(NC(=O)c2ccc(Cl)cc2)nc2ccccc21`, the “% Inhibition @ 10 uM” value is listed as 0.512%.

On to `COCCNC(=O)c1cc(-c2ccc(Br)cc2)[nH]n1`, for which the “% Inhibition @ 10 uM” value is -2.37%.

As to `CS(=O)(=O)N1N=C(c2ccc(Br)cc2)CC1c1cccs1` (stereo not drawn), the “% Inhibition @ 10 uM” value is -3.1%.

With `COc1cc(/C=C/C(=O)Nc2nc3c(s2)C(=O)CC(C)(C)C3)cc(OC)c1OC`, the “% Inhibition @ 10 uM” value amounted to 5.17%.

Regarding `COc1ccc(OCC(=O)Nc2nc(-c3ccc(F)cc3)cs2)cc1`, the “% Inhibition @ 10 uM” value is reported as -3.04%.

On to `C=CCN1C(=O)c2ccccc2C1C(=O)NCc1cccnc1` (stereo not drawn), for which the “% Inhibition @ 10 uM” value is -1.34%.

On to `COc1ccc(OC)c(CN2CCN(c3ccccc3OC)CC2)c1`, for which the “% Inhibition @ 10 uM” value was 4.81%.

Consider `O=C(Nc1ccccc1)Nc1cccc2cccnc12`, for which the “% Inhibition @ 10 uM” value was found to be 2.33%.

Turning to `Cc1c(C(=O)NC(C)CCc2ccccc2)oc2c1C(=O)CCC2` (stereo not drawn), the “% Inhibition @ 10 uM” value is reported as -0.12%.

For `COc1ccc(S(=O)(=O)N2CCCCC2)cc1-n1cnnn1`, the “% Inhibition @ 10 uM” value worked out at 1.32%.

Consider `COc1ccc(OC)c(C(=O)c2oc3ccc(Br)cc3c2N)c1`, for which the “% Inhibition @ 10 uM” value was 8.89%.

With `Cc1cc(N2C(=O)C3C4c5ccccc5C(c5ccccc54)C3C2=O)no1` (stereo not drawn), the “% Inhibition @ 10 uM” value amounted to 0.52%.

`CCc1ccc(C(=O)CSc2nnnn2-c2ccccc2)cc1`: the “% Inhibition @ 10 uM” value is given as -2.39%.

On to `Cc1ccc(-c2nnc(C)nc2-c2cn(C)c3ccccc23)cc1`, for which the “% Inhibition @ 10 uM” value amounted to 1.32%.

Regarding `CCc1ccc(N2CC(C(=O)Nc3ccccc3Br)CC2=O)cc1` (stereo not drawn), the “% Inhibition @ 10 uM” value turned out to be 28.3%.

As to `Cc1cc(/C=C2\SC(N)=NC2=O)c(C)n1-c1ccc(Cl)c(Cl)c1`, the “% Inhibition @ 10 uM” value is -9.75%.

`CCOC(=O)C1(C#N)C(N)=C(C#N)C(c2ccccc2)=CC1c1ccccc1` (stereo not drawn): the “% Inhibition @ 10 uM” value is listed as -6.76%.

Turning to `CC(=O)Nc1ccc(S(=O)(=O)Nc2ccccc2Cl)cc1`, the “% Inhibition @ 10 uM” value is given as -2.55%.

Consider `CCOc1ccc(NC(=O)CS(=O)(=O)Cc2ccccc2)cc1`, for which the “% Inhibition @ 10 uM” value was found to be 0.658%.

Turning to `COc1ccc(C2C(C(C)=O)=C(C)N=c3s/c(=C\c4ccc5c(c4)OCO5)c(=O)n32)c(OC)c1` (stereo not drawn), the “% Inhibition @ 10 uM” value was 4.67%.

In the case of `Cc1cc(NS(=O)(=O)c2ccc(NC(=O)C3CC3)cc2)no1`, the “% Inhibition @ 10 uM” value was determined as 4.05%.

Turning to `O=C(COc1ccc(Cl)cc1Cl)NCCCN1CCOCC1`, the “% Inhibition @ 10 uM” value is -2.97%.

As for `CN1CCN(CCNC(=O)c2ccc(CS(=O)c3ccc(Br)cc3)o2)CC1` (stereo not drawn), the “% Inhibition @ 10 uM” value is recorded as -0.716%.

Take `CCc1nn(-c2cc(Oc3ccccc3C)ncn2)c(N)c1C(N)=O`: the “% Inhibition @ 10 uM” value is given as 0.145%.

Consider `CCCN(CCC)C(=O)CC(c1ccccc1)C1CCOC(C)(C)C1` (stereo not drawn), for which the “% Inhibition @ 10 uM” value is reported as 1.62%.

Consider `COC(=O)c1ccc(CC(=O)c2c(O)cc(O)cc2O)o1`, for which the “% Inhibition @ 10 uM” value is recorded as -8.12%.

As to `CN(C)CCn1c2ccccc2n2cc(-c3ccc(F)cc3)nc12`, the “% Inhibition @ 10 uM” value is recorded as -4.82%.

Turning to `Cc1ccc(-n2ncc3c(NCCN4CCOCC4)ncnc32)cc1`, the “% Inhibition @ 10 uM” value is -1.27%.

As to `O=C(C1CC2CCC1C2)N1CCN(C(c2ccccc2)c2ccccc2)CC1` (stereo not drawn), the “% Inhibition @ 10 uM” value was -0.233%.

As to `Cc1ccc(CS(=O)Cc2ccc(C(=O)NCCc3ccccc3)o2)cc1` (stereo not drawn), the “% Inhibition @ 10 uM” value was 1.22%.

With `CC(C)(C)c1cc(-c2nc3ccccc3[nH]2)cc(C(C)(C)C)c1O`, the “% Inhibition @ 10 uM” value is listed as -8.11%.

Turning to `c1ccc(CN2CCN(Cc3c[nH]c4ccccc34)CC2)nc1`, the “% Inhibition @ 10 uM” value stood at 1.89%.

Consider `COc1cccc(C2C(C#N)=C(N)Oc3[nH]nc(C(C)(C)C)c32)c1OC` (stereo not drawn), for which the “% Inhibition @ 10 uM” value was 2.7%.

Regarding `CCC1CCCCN1Cc1ccc(OC)c(C)c1C` (stereo not drawn), the “% Inhibition @ 10 uM” value was -2.34%.

As to `CCN(CC)S(=O)(=O)c1ccc2ncc(C(=O)N3CCCCC3C)c(O)c2c1` (stereo not drawn), the “% Inhibition @ 10 uM” value is reported as -6.16%.

As for `Cc1nnn(C23CC4CC(CC(C(=O)NC5CCCC5)(C4)C2)C3)n1`, the “% Inhibition @ 10 uM” value is given as 4.95%.

Turning to `CN1C(=O)/C(=C/c2ccccc2O)S/C1=N/c1cccc(C(=O)O)c1`, the “% Inhibition @ 10 uM” value was determined as 14.3%.

On to `O=C(NCCCNCc1ccccc1)c1ccccn1`, for which the “% Inhibition @ 10 uM” value is listed as -0.386%.

Consider `COc1ccccc1NC(=O)COc1ccccc1C`, for which the “% Inhibition @ 10 uM” value is given as 4.11%.

These data come from PMC6919601, “Identification of Plasmodium dipeptidyl aminopeptidase allosteric inhibitors by high throughput screening” (PLoS ONE, 2019).
